{"source": "the supplement of paper PMC8728848", "binders": {"B1": {"name": "LTL (Lotus tetragonolobus), P19664 (protein)", "chain": "VSFNYTEFKDDGSLILQGDAKIWTDGRLAMPTDPLVNNPKTTRSAGRALYATPVPIWDSATGNVASFVTSFNFLFVIRELKYTPTDGLVFFLAPVGTEIPSGSTGGFLGIFDGSNGFNQFVAVEFDSYHNIWDPKSLRSSHVGIDVNSIMSLKAVNWNRVSGSLEKATIIYDSQTNILSVVMTSQNGQITTIYGTIDLKTVLPEKVSVGFSATTGNPEREKHDIYSWSFTSTLKEPEEQA"}}, "test_in_all_cases": "glycan array binding signal (z-score within array); higher = stronger binding", "settings_in_all_cases": "glycan notation: IUPAC condensed, linker removed", "key": {"[1]": {"target": "Fuc(a1-3)[Gal(b1-4)]GlcNAc(b1-3)GalNAc", "how_it_was_run": "(§1)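 Columns mapping to the same glycan were averaged after glycan names were converted to IUPAC-condensed notation. The data come from 3228 arrays in the Consortium for Functional Glycomics database, limited to those with an available protein sequence. Binding is reported as a within-array Z-score averaged across arrays of one protein sequence and across linkers.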"}, "[2]": {"target": "Fuc(a1-3)[Gal(b1-4)]GlcNAc(b1-4)Gal(b1-4)[Fuc(a1-3)]GlcNAc", "how_it_was_run": "as §1"}, "[3]": {"target": "Fuc(a1-3)[Gal(b1-4)]GlcNAc(b1-4)Gal(b1-4)[Fuc(a1-3)]GlcNAc(b1-4)Gal(b1-4)[Fuc(a1-3)]GlcNAc", "how_it_was_run": "as §1"}, "[4]": {"target": "Fuc(a1-3)[Gal(b1-4)]GlcNAc(b1-6)GalNAc", "how_it_was_run": "as §1"}, "[5]": {"target": "Fuc(a1-3)[Gal(b1-4)]GlcNAc(b1-6)[Gal(b1-3)GlcNAc(b1-3)]Gal(b1-4)Glc", "how_it_was_run": "as §1"}, "[6]": {"target": "Fuc(a1-3)[Gal(b1-4)]GlcNAc6S", "how_it_was_run": "as §1"}, "[7]": {"target": "Fuc(a1-3)[Gal3S(b1-4)]Glc", "how_it_was_run": "as §1"}, "[8]": {"target": "Fuc(a1-3)[Gal3S(b1-4)]Glc6S", "how_it_was_run": "as §1"}, "[9]": {"target": "Fuc(a1-3)[Gal3S(b1-4)]GlcNAc", "how_it_was_run": "as §1"}, "[10]": {"target": "Fuc(a1-3)[Gal3S(b1-4)]GlcNAc6S", "how_it_was_run": "as §1"}, "[11]": {"target": "Fuc(a1-3)[GalNAc(b1-4)]Gal(b1-4)GlcNAc", "how_it_was_run": "as §1"}, "[12]": {"target": "Fuc(a1-3)[GalNAc(b1-4)]GlcNAc", "how_it_was_run": "as §1"}, "[13]": {"target": "Fuc(a1-3)[GalNAc(b1-4)]GlcNAc6S", "how_it_was_run": "as §1"}, "Fuc(a1-4)GlcNAc": {"target": "Fuc(a1-4)GlcNAc", "how_it_was_run": "as §1"}, "Fuc(b1-3)GlcNAc": {"target": "Fuc(b1-3)GlcNAc", "how_it_was_run": "as §1"}, "Gal(a1-2)Gal": {"target": "Gal(a1-2)Gal", "how_it_was_run": "as §1"}, "Gal(a1-3)Gal": {"target": "Gal(a1-3)Gal", "how_it_was_run": "as §1"}, "Gal(a1-3)Gal(b1-3)Glc": {"target": "Gal(a1-3)Gal(b1-3)Glc", "how_it_was_run": "as §1"}, "Gal(a1-3)Gal(b1-3)GlcNAc": {"target": "Gal(a1-3)Gal(b1-3)GlcNAc", "how_it_was_run": "as §1"}, "[14]": {"target": "Gal(a1-3)Gal(b1-3)GlcNAc(b1-2)Man", "how_it_was_run": "as §1"}, "[15]": {"target": "Gal(a1-3)Gal(b1-3)GlcNAc(b1-2)Man(a1-3)[Gal(a1-3)Gal(b1-3)GlcNAc(b1-2)Man(a1-6)]Man(b1-4)GlcNAc(b1-4)GlcNAc", "how_it_was_run": "as §1"}, "[16]": {"target": "Gal(a1-3)Gal(b1-3)GlcNAc(b1-3)GalNAc", "how_it_was_run": "as §1"}, "[17]": {"target": "Gal(a1-3)Gal(b1-3)GlcNAc(b1-6)GalNAc", "how_it_was_run": "as §1"}, "[18]": {"target": "Gal(a1-3)Gal(b1-3)[Fuc(a1-4)]GlcNAc(b1-2)Man(a1-3)[Gal(a1-3)Gal(b1-3)[Fuc(a1-4)]GlcNAc(b1-2)Man(a1-6)]Man(b1-4)GlcNAc(b1-4)GlcNAc", "how_it_was_run": "as §1"}, "Gal(a1-3)Gal(b1-4)Glc": {"target": "Gal(a1-3)Gal(b1-4)Glc", "how_it_was_run": "as §1"}, "Gal(a1-3)Gal(b1-4)GlcNAc": {"target": "Gal(a1-3)Gal(b1-4)GlcNAc", "how_it_was_run": "as §1"}, "[19]": {"target": "Gal(a1-3)Gal(b1-4)GlcNAc(b1-2)Man", "how_it_was_run": "as §1"}, "[20]": {"target": "Gal(a1-3)Gal(b1-4)GlcNAc(b1-2)Man(a1-3)[Gal(a1-3)Gal(b1-4)GlcNAc(b1-2)Man(a1-6)]Man(b1-4)GlcNAc(b1-4)GlcNAc", "how_it_was_run": "as §1"}, "[21]": {"target": "Gal(a1-3)Gal(b1-4)GlcNAc(b1-3)GalNAc", "how_it_was_run": "as §1"}, "[22]": {"target": "Gal(a1-3)Gal(b1-4)GlcNAc(b1-6)GalNAc", "how_it_was_run": "as §1"}, "[23]": {"target": "Gal(a1-3)Gal(b1-4)[Fuc(a1-3)]GalNAc", "how_it_was_run": "as §1"}, "[24]": {"target": "Gal(a1-3)Gal(b1-4)[Fuc(a1-3)]GlcNAc", "how_it_was_run": "as §1"}, "[25]": {"target": "Gal(a1-3)Gal(b1-4)[Fuc(a1-3)]GlcNAc(b1-2)Man(a1-3)[Gal(a1-3)Gal(b1-4)[Fuc(a1-3)]GlcNAc(b1-2)Man(a1-6)]Man(b1-4)GlcNAc(b1-4)GlcNAc", "how_it_was_run": "as §1"}, "Gal(a1-3)GalNAc": {"target": "Gal(a1-3)GalNAc", "how_it_was_run": "as §1"}, "Gal(a1-3)GlcNAc": {"target": "Gal(a1-3)GlcNAc", "how_it_was_run": "as §1"}, "[26]": {"target": "Gal(a1-3)[Gal(a1-4)]Gal(b1-4)GlcNAc", "how_it_was_run": "as §1"}, "[27]": {"target": "Gal(a1-4)Gal(b1-3)GlcNAc(b1-2)Man(a1-3)[Gal(a1-4)Gal(b1-3)GlcNAc(b1-2)Man(a1-6)]Man(b1-4)GlcNAc(b1-4)GlcNAc", "how_it_was_run": "as §1"}}, "note": "Some of the results follow."}
{"binder": "B1", "values": [{"measurement": "glycan array binding signal (z-score)", "setting": "[1]", "value": 0.157}, {"measurement": "glycan array binding signal (z-score)", "setting": "[2]", "value": 1.35}, {"measurement": "glycan array binding signal (z-score)", "setting": "[3]", "value": 1.86}, {"measurement": "glycan array binding signal (z-score)", "setting": "[4]", "value": 0.08}, {"measurement": "glycan array binding signal (z-score)", "setting": "[5]", "value": -0.012}, {"measurement": "glycan array binding signal (z-score)", "setting": "[6]", "value": 0.157}, {"measurement": "glycan array binding signal (z-score)", "setting": "[7]", "value": -0.195}, {"measurement": "glycan array binding signal (z-score)", "setting": "[8]", "value": 0.757}, {"measurement": "glycan array binding signal (z-score)", "setting": "[9]", "value": -0.14}, {"measurement": "glycan array binding signal (z-score)", "setting": "[10]", "value": -0.275}, {"measurement": "glycan array binding signal (z-score)", "setting": "[11]", "value": -0.071}, {"measurement": "glycan array binding signal (z-score)", "setting": "[12]", "value": -0.042}, {"measurement": "glycan array binding signal (z-score)", "setting": "[13]", "value": -0.039}, {"measurement": "glycan array binding signal (z-score)", "setting": "Fuc(a1-4)GlcNAc", "value": -0.243}, {"measurement": "glycan array binding signal (z-score)", "setting": "Fuc(b1-3)GlcNAc", "value": 0.523}, {"measurement": "glycan array binding signal (z-score)", "setting": "Gal(a1-2)Gal", "value": -0.26}, {"measurement": "glycan array binding signal (z-score)", "setting": "Gal(a1-3)Gal", "value": -0.172}, {"measurement": "glycan array binding signal (z-score)", "setting": "Gal(a1-3)Gal(b1-3)Glc", "value": -0.091}, {"measurement": "glycan array binding signal (z-score)", "setting": "Gal(a1-3)Gal(b1-3)GlcNAc", "value": -0.306}, {"measurement": "glycan array binding signal (z-score)", "setting": "[14]", "value": -0.377}, {"measurement": "glycan array binding signal (z-score)", "setting": "[15]", "value": 1.7}, {"measurement": "glycan array binding signal (z-score)", "setting": "[16]", "value": -0.223}, {"measurement": "glycan array binding signal (z-score)", "setting": "[17]", "value": -0.19}, {"measurement": "glycan array binding signal (z-score)", "setting": "[18]", "value": 0.316}, {"measurement": "glycan array binding signal (z-score)", "setting": "Gal(a1-3)Gal(b1-4)Glc", "value": -0.077}, {"measurement": "glycan array binding signal (z-score)", "setting": "Gal(a1-3)Gal(b1-4)GlcNAc", "value": -0.23}, {"measurement": "glycan array binding signal (z-score)", "setting": "[19]", "value": -0.168}, {"measurement": "glycan array binding signal (z-score)", "setting": "[20]", "value": 0.071}, {"measurement": "glycan array binding signal (z-score)", "setting": "[21]", "value": -0.205}, {"measurement": "glycan array binding signal (z-score)", "setting": "[22]", "value": -0.284}, {"measurement": "glycan array binding signal (z-score)", "setting": "[23]", "value": -0.905}, {"measurement": "glycan array binding signal (z-score)", "setting": "[24]", "value": -0.209}, {"measurement": "glycan array binding signal (z-score)", "setting": "[25]", "value": 0.006}, {"measurement": "glycan array binding signal (z-score)", "setting": "Gal(a1-3)GalNAc", "value": -0.184}, {"measurement": "glycan array binding signal (z-score)", "setting": "Gal(a1-3)GlcNAc", "value": -0.462}, {"measurement": "glycan array binding signal (z-score)", "setting": "[26]", "value": 0.149}, {"measurement": "glycan array binding signal (z-score)", "setting": "[27]", "value": -0.235}]}
